These are yes or no findings as the source states them, for the method shown. In cells and extracts the contact can be indirect. Some binding calls cover weakened binding; strength is not graded here. Where a sequence is shown, tags or fusion partners need not be part of it.
T1: ETFA-His6 (human electron transfer flavoprotein subunit alpha), from E. coli (human) (UniProt P13804)
T1 sequence: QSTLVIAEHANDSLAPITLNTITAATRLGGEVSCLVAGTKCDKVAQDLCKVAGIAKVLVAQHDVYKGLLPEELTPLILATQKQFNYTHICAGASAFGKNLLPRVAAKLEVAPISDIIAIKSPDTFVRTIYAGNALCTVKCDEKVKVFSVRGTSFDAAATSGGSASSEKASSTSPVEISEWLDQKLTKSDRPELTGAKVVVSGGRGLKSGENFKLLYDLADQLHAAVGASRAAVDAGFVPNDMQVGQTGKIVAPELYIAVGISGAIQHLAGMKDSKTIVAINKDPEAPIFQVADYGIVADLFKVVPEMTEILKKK

T2: ETFB-His6 (human electron transfer flavoprotein subunit beta), from E. coli (human) (UniProt P38117)
T2 sequence: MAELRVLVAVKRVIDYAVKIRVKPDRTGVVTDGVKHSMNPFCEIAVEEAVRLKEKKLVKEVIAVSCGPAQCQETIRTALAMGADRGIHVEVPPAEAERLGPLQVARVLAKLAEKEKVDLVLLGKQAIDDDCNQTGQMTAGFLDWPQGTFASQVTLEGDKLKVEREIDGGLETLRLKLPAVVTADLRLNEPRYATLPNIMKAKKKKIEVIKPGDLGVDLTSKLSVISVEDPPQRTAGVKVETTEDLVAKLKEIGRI

T3: 3-hydroxy-3-methylglutaryl-CoA lyase fused to YFP2 (UniProt P35914)
T3 sequence: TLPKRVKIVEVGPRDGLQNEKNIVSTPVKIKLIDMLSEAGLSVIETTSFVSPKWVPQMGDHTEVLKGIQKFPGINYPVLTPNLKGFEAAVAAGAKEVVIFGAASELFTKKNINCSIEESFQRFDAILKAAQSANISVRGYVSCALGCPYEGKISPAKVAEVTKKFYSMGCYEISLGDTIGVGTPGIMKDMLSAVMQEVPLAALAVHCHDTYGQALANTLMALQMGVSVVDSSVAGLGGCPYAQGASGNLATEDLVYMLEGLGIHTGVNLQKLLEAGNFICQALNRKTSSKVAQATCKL

T4: ETFA-YFP2 (human) (UniProt P13804)
T4 sequence: T1 sequence

T5: ETFB fused C-terminally to YFP1 or YFP2 (protein complementation assay) (human) (UniProt P38117)
T5 sequence: T2 sequence

T6: GCDH fused C-terminally to YFP1 or YFP2 (protein complementation assay) (human) (UniProt Q92947)
T6 sequence: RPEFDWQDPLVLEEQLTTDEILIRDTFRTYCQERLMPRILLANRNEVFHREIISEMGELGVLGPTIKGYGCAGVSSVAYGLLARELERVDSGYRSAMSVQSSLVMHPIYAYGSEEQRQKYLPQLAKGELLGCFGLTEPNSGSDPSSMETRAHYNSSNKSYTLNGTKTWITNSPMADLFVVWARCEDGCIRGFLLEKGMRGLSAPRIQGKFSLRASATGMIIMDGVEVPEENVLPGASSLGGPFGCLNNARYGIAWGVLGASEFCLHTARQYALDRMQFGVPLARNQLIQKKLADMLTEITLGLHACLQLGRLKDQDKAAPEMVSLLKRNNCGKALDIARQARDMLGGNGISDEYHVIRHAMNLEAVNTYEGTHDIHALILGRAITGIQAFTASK

T7: multiple coagulation factor deficiency protein 2 fused to YFP2 (UniProt Q8NI22)
T7 sequence: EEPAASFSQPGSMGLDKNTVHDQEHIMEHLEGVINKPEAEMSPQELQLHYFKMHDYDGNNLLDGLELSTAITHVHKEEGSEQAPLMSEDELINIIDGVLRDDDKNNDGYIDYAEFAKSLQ

T8: GCDH His6-fusion protein (human glutaryl-CoA dehydrogenase, mature enzyme) (human) (UniProt Q92947)
T8 sequence: T6 sequence

B1: GCDH-Myc (human), expressed in BHK cells (enzyme, UniProt Q92947 45-438)
chain: T6 sequence
B2: GCDH fused C-terminally to YFP1 or YFP2 (protein complementation assay) (enzyme, UniProt Q92947 45-438)
chain: T6 sequence
B3: ETFB fused C-terminally to YFP1 or YFP2 (protein complementation assay) (protein, UniProt P38117-1 1-255)
chain: T2 sequence
B4: dihydrolipoamide S-succinyltransferase (pig liver mitochondrial matrix) (enzyme, UniProt Q9N0F1 69-455)
chain: DDVITVKTPAFAESVTEGDVRWEKAVGDTVAEDEVVCEIETDKTSVQVPSPANGVIEALLVPDGGKVEGGTPLFTLRKTGAAPAKAKPAEAPAAAAPKAEPAVSAVPPPPAASIPTQMPPVPSPPQPLTSKPVSAVKPTAAPPVAEPGAVKGLRAEHREKMNRMRQRIAQRLKEAQNTCAMLTTFNEIDMSNIQDMRARHKEAFLKKHNLKLGFMSAFVKASAFALQEQPVVNAVIDDTTKEVVYRDYIDISVAVATPRGLVVPVIRNVETMNYADIERTISELGEKARKNELAIEDMDGGTFTISNGGVFGSLFGTPIINPPQSAILGMHAIVDRPVAVGGKVEIRPMMYVALTYDHRLIDGREAVTFLRKIKAAVEDPRVLLLDL
B5: electron transfer flavoprotein subunit beta (pig liver mitochondrial matrix) (protein, UniProt Q6UAQ8 1-255)
chain: MAELRALVAVKRVIDFAVKIRVKPDRTGVVMDGVKHSMNPFCEIAVEEAVRLKEKKLVKEVIAVSCGPAQCQETIRTALAMGADRGIHVEVPAAEAHHLGPLQVARVLAKLAQKEKVDLVLLGKQAIDDDCNQTGQMTAGFLDWPQGTFASQVTLEGDKVKVEREIDGGLETLRLKLPAVVTADLRLNEPRYATLPNIMKAKKKKIEVIKAGDLGVDLTSKLSVVSVEDPPQRVAGVKVETTEDLVAKLREIGRI

Columns and labels:
[1] = molecular target: T1, ETFA-His6 (human electron transfer flavoprotein subunit alpha), from E. coli (human); assay: pull-down; ETFB-His6 or ETFA-His6 from E. coli immobilised on Ni-NTA agarose, incubated 2 h with 0.3 mg BHK cell extract overexpressing GCDH-Myc or LC3-GFP; buffer 50 mM NaH2PO4 pH 7.8, 300 mM NaCl, 10 mM imidazole; western blotting; only the target purified
[2] = molecular target: T2, ETFB-His6 (human electron transfer flavoprotein subunit beta), from E. coli (human); assay: as above
[3] = molecular target: T3, 3-hydroxy-3-methylglutaryl-CoA lyase fused to YFP2; assay: split reporter; YFP-based protein fragment complementation assay: YFP1 (1-158) and YFP2 (159-239) C-terminal fusions co-expressed in BHK cells, fixed 24 h after transfection, confocal fluorescence microscopy
ETFA-YFP2 (human) = molecular target: T4, ETFA-YFP2 (human); assay: as above
[4] = molecular target: T5, ETFB fused C-terminally to YFP1 or YFP2 (protein complementation assay) (human); assay: as above
[5] = molecular target: T6, GCDH fused C-terminally to YFP1 or YFP2 (protein complementation assay) (human); assay: as above
[6] = molecular target: T7, multiple coagulation factor deficiency protein 2 fused to YFP2; assay: as above
[7] = molecular target: T8, GCDH His6-fusion protein (human glutaryl-CoA dehydrogenase, mature enzyme) (human); assay: pull-down; GCDH coupled covalently to Affi-Gel 10, incubated with pig liver mitochondrial matrix proteins; high salt elution fraction tested by anti-DLST and anti-ETFB western blotting; non-coupled beads as control; only the target purified

| Binder | binding (ETFA-YFP2 (human)) | binding [5] | binding [7] | also measured |
| --- | --- | --- | --- | --- |
| B1 |  |  |  | binding [1]: binds weakly; binding [2]: binds |
| B2 | binds weakly | binds |  | binding [3]: no binding; binding [4]: binds; binding [6]: no binding |
| B3 | binds | binds |  |  |
| B4 |  |  | binds |  |
| B5 |  |  | binds |  |
